Laboratory results reported in PubChem BioAssay AID686978 (National Center for Advancing Translational Sciences (NCATS), 2013).
The whole screen tested about 420,000 compounds, of which about 64,000 (15%) were called active. Inconclusive means that the source gave no clear call. Such entries were picked first, then a sample of the others. Calls follow the shape of the dose curve; as a rule, active = well fitted inhibition curve with a large enough effect; inconclusive = small, poorly fitted or top-dose-only effect; inactive = flat fitted curve, though single readings scatter. Potencies of inconclusive entries are left out as doubtful fits.

Experiment: qHTS for Inhibitors of human tyrosyl-DNA phosphodiesterase 1 (TDP1): qHTS in cells in absence of CPT; also: nearly all actives have a fitted effect of over 55% in size
Settings: DT40 Tdp1-/- hTDP1 cells, no CPT, ATP luminescence, 48 h; activity change, negative = growth inhibition: at 46.2 µM (top of the series) unless noted
Outline: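 Seeded 400 DT40-hTDP1 cells/well (vehicle DMSO, no 20 nM CPT); pinned compounds; ≥48 hr at 37 °C; CellTiter-Glo luminescence as viability measure.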
% is scaled to controls: 0 for no effect and ±100 for the full control effect; potency is read from the fitted curve at half-maximal effect; tags tell the direction and shape of the fitted curve.

Row | SMILES | Potency | activity change, negative = growth inhibition
1 | C[N+]12CCC(CC1)C(OC(=O)C(O)(c1ccccc1)c1ccccc1)C2 (centres undefined) | inactive | –
2 | CN(C)C(=O)c1ccc(-c2cncnc2N2CCNCC2)cc1 | – | inactive: 1.55%
3 | CC(C)c1ccc(/C=C/C2=NNC(=O)CC2)cc1 | active: 11.6 µM | –
4 | COc1ccc(Nc2ccc(Cl)cc2)c(C(=O)O)c1 | – | inactive: -19.9%
5 | CC1=NN(c2ccccc2)C(=O)C1N=Nc1cccc(O)c1 (centres undefined) | active: 16.4 µM | –
6 | O=C(Nc1ccccc1Cl)NC1CCCCCCC1 | – | inactive: 9.25%
7 | Cc1onc(-c2c(Cl)cccc2Cl)c1C(=O)NNC(=O)c1c(-c2c(Cl)cccc2Cl)noc1C | inconclusive [inhibitor, partial curve, poor fit] | –
8 | Cc1cc(C)c(/C=C/c2onc(C)c2S(=O)(=O)N2CCC(C(=O)Nc3cccc(C)c3C)CC2)c(C)c1 | active: 6.51 µM | –
9 | Cc1ccsc1/C=N/Nc1ncnc2nc[nH]c12 | inconclusive [inhibitor, single point] | –
10 | Cc1ccc(CNS(=O)(=O)c2ccc3c(c2)CCN3C(=O)CCCC(=O)O)cc1 | – | inactive: 14.9%
11 | CCCCn1c(CCNC(=O)c2ccco2)nc2ccccc21 | inconclusive [inhibitor, single point] | –
12 | Cc1ccc(C)c(NC(=S)NC23CN4CN(CN(C4)C2)C3)c1 | – | inactive: -18.3%
13 | Cc1cccc(NC(=O)c2ccoc2C)n1 | – | inactive: -0.976%
14 | CCCC(=O)Oc1ccc2[nH]c(C(=O)c3cc4ccccc4[nH]3)cc2c1 | inconclusive [inhibitor, single point] | –
15 | CCOC(=O)c1c(C)oc2nc(C)nc(N(C)Cc3ccccc3)c12 | active: 23.1 µM | –
16 | O=C(Nc1cccc2ccccc12)c1ccc(OC(=S)N2CCOCC2)cc1 | active: 23.1 µM | –
17 | O=C(/C=C/c1ccc2c(c1)OCCO2)c1ccc(O)cc1 | inconclusive [inhibitor, single point] | –
18 | O=C(NCC(=O)N1CCN(Cc2ccccc2)CC1)c1cc(Cl)cc([N+](=O)[O-])c1 | inconclusive [inhibitor, single point] | –
19 | Cc1cc(C(=O)NC(C)c2ccncc2)cs1 (centres undefined) | – | inactive: 2.51%
20 | c1ccc2c(c1)nc(NC1CCCCC1)c1nncn12 | inconclusive [inhibitor, partial curve] | –
21 | Cc1cc(C)cc(NS(=O)(=O)c2ccc3[nH]c(=O)ccc3c2)c1 | – | inconclusive: -34.4% [inhibitor]
22 | CC(=O)c1ccc(NC(=O)CSc2nc(-c3ccccc3C)nc3c2c(=O)n(C)c(=O)n3C)cc1 | inconclusive [inhibitor, partial curve] | –
23 | O=c1ccc2c(-c3ccccc3S(=O)(=O)O)c3ccc(O)c(O)c3oc-2c1O | active: 11.6 µM | –
24 | COc1ccc(C(CNC(=O)COc2ccc(Cl)c(C)c2)N2CCCCC2)cc1 (centres undefined) | inconclusive [inhibitor, single point] | –
25 | CCOC(=O)N1CCN(CCC(=O)c2ccc(Br)cc2)CC1 | active: 7.31 µM | –

Row | SMILES | Potency | activity change, negative = growth inhibition
26 | O=C(C1CCCN(S(=O)(=O)c2cccc3nonc23)C1)N1CCN(c2cccc(C(F)(F)F)c2)CC1 (centres undefined) | active: 11.6 µM | –
27 | CCCCNC(=S)NNC(=O)c1c(Cl)c(C)nn1C | active: 16.4 µM | –
28 | COc1cc(CN2CCNC(=O)C2CC(=O)N2CCCO2)cc(OC)c1 (centres undefined) | – | inactive: -12.5%
29 | Cc1ccc(S(=O)(=O)N(C)C)cc1NC(=S)NC12CC3CC(CC(C3)C1)C2 | inconclusive [inhibitor, partial curve] | –
30 | Cc1ccc(SCc2c(C(=O)N/N=C/c3cccs3)nnn2-c2nonc2N)cc1 | inconclusive [inhibitor, partial curve] | –
31 | COc1ccc(C2NC(c3ccc4c(c3)OCO4)=CC(c3ccccc3O)N2)cc1OC (centres undefined) | active: 17.8 µM | –
32 | O=C(CSc1ncc(-c2ccc(Cl)cc2)[nH]1)Nc1ccccc1F | inconclusive [inhibitor, single point] | –
33 | N#CC1(NC(=O)CSc2nnc(C3CC3)n2C2CC2)CCCCC1 | – | inactive: 17.4%
34 | CCCn1nc(C(=O)OCC(=O)Nc2cccc(OC)c2)c2ccccc2c1=O | – | inactive: -1.04%
35 | c1ccc(COC(CN2CCCCCC2)CN2CCCCCC2)cc1 | active: 20.6 µM | –
36 | Cc1ccc(S(=O)(=O)N2CCCC2C(=O)Nc2ccc(Br)cc2)cc1 (centres undefined) | active: 14.6 µM | –
37 | CC(C)COc1cccc(C(=O)Nc2ccc(CN3CCOCC3)cc2)c1 | inconclusive [inhibitor, single point] | –
38 | CCOc1ccc(C(=O)c2cn(Cc3cccc(OC)c3)c3cc4c(cc3c2=O)OCO4)cc1 | inconclusive [inhibitor, single point] | –
39 | COc1ccc(OCC(O)CN(CCO)CC(O)Cn2ccc3ccccc32)cc1 (centres undefined) | inconclusive [inhibitor, single point] | –
40 | COc1ccccc1NC(=O)COc1ccc(Br)cc1CNC1CCCC1 | inconclusive [inhibitor, single point] | –
41 | Cn1cc(CN2CCc3c([nH]c4ccccc34)C2C(C)(C)C)cn1 (centres undefined) | inconclusive [inhibitor, single point] | –
42 | CCOc1ccc(OCC)c(NC(=O)CN(C)S(=O)(=O)c2cccc3nsnc23)c1 | inconclusive [inhibitor, single point] | –
43 | Cc1cccc(N2CCN(C(=O)c3cnc4c(C)cccn4c3=O)CC2C)c1 (centres undefined) | inconclusive [inhibitor, single point] | –
44 | NC(=O)c1c(NC(=O)C2CCCO2)sc2c1CCCCC2 (centres undefined) | – | inconclusive: -35.6% [inhibitor]
45 | COc1cc(NC(=O)CC2NCCNC2=O)cc(OC)c1 (centres undefined) | – | inactive: -2.91%
46 | O=C(c1ccccc1F)N1CCN(Cc2cccc(Cl)c2)CC1 | – | inactive: -22.6%
47 | O=C(COc1cccc(Cl)c1)N1CCC(c2nc3ccccc3o2)CC1 | inconclusive [inhibitor, single point] | –
48 | COC(=O)c1cc2c(ccn2-c2ccc(F)cc2)n1C(C)C | inconclusive [inhibitor, single point] | –
49 | Cn1c(C(=O)Nc2ccc3c(c2)OCO3)cc2sccc21 | – | inconclusive: -34.5% [inhibitor]
